# Source: a collection of fitness landscapes (doi:10.1126/science.1257360)
# The other results are listed elsewhere or left out.
# B1: PhoQ; a variant is named by its letters at X, in order, P23837 (parent)
# chain: MKKLLRLFFPLSLRVRFLLATAAVVLVLSLAYGMVALIGYSVSFDKTTFRLLRGESNLFYTLAKWENNKLHVELPENIDKQSPTMTLIYDENGQLLWAQRDVPWLMKMIQPDWLKSNGFHEIEADVNDTSLLLSGDHSIQQQLQEVREDDDDAEMTHSVAVNVYPATSRMPKLTIVVVDTIPVELKSSYMVWSWFIYVLSANLLLVIPLLWVAAWWSLRPIEALAKEVRELEEHNRELLNPATTRELTSLVRNLNRLLKSERERYDKYRTTLTDLTHSLKTPLXXLQXXLRSLRSEKMSVSDAEPVMLEQISRISQQIGYYLHRASMRGGTLLSRELHPVAPLLDNLTSALNKVYQRKGVNISLDISPEISFVGEQNDFVEVMGNVLDNACKYCLEFVEISARQTDEHLYIVVEDDGPGIPLSKREVIFDRGQRVDTLRPGQGVGLAVAREITEQYEGKIVAGESMLGGARMEVIFGRQHSAPKDE
# Variants of: B1
# Assay: enrichment ratio after two sorts for PhoP signalling (ratio (wild type AVST 3.29)); higher = more functional
# Conditions: with PhoP (E. coli)
row,Variant,enrichment ratio
1,RVFK,≤ 0.25
2,FPCW,≤ 0.25
3,LDPT,≤ 0.25
4,FQSY,≤ 0.25
5,SVPP,≤ 0.25
6,WYWN,≤ 0.25
7,AQEW,≤ 0.25
8,AWFL,≤ 0.25
9,HMKW,≤ 0.25
10,LPQS,≤ 0.25
11,DWRT,≤ 0.25
12,YMWI,≤ 0.25
13,YLIC,≤ 0.25
14,AFVW,≤ 0.25
15,VNPQ,≤ 0.25
16,KKIH,≤ 0.25
17,YNYM,≤ 0.25
18,SMSH,9.89
19,ANPE,≤ 0.25
20,ECFY,≤ 0.25
21,TVHR,≤ 0.25
22,SCEF,≤ 0.25
23,KLPE,≤ 0.25
24,RKNI,≤ 0.25

row,Variant,enrichment ratio
1,TNIF,≤ 0.25
2,KHIL,≤ 0.25
3,IMMW,≤ 0.25
4,NLVF,≤ 0.25
5,YFCE,≤ 0.25
6,FNTH,≤ 0.25
7,LPHL,≤ 0.25
8,DWAV,≤ 0.25
9,GSYG,≤ 0.25
10,SRRW,≤ 0.25
11,TDFN,≤ 0.25
12,NQLS,≤ 0.25
13,FQQY,≤ 0.25
14,QNVQ,≤ 0.25
15,SSWS,≤ 0.25
16,MQHI,≤ 0.25
17,EHIA,≤ 0.25
18,TFKL,≤ 0.25
19,YIPR,≤ 0.25
20,AWMG,≤ 0.25
21,DWRR,≤ 0.25
22,QGYI,17.5
23,TIMV,1.5
24,NDSC,≤ 0.25

row,Variant,enrichment ratio
1,QDPW,≤ 0.25
2,LAPF,≤ 0.25
3,PQGQ,≤ 0.25
4,ETVS,≤ 0.25
5,RWLW,≤ 0.25
6,IFVT,≤ 0.25
7,EIHC,≤ 0.25
8,GRYT,≤ 0.25
9,NVRH,≤ 0.25
10,AIMA,12.1
11,EYKW,≤ 0.25
12,MLYP,≤ 0.25
13,YLIS,≤ 0.25
14,NGSG,≤ 0.25
15,EQQY,≤ 0.25
16,NCIN,≤ 0.25
17,QIMC,≤ 0.25
18,DTWN,≤ 0.25
19,HTFP,≤ 0.25
20,QHSY,4.24
21,WRLI,≤ 0.25
22,DVVT,≤ 0.25
23,LDVS,≤ 0.25
24,GIRQ,≤ 0.25

row,Variant,enrichment ratio
1,SDPF,≤ 0.25
2,LEEQ,≤ 0.25
3,ENQV,≤ 0.25
4,SIGQ,10.4
5,INID,≤ 0.25
6,EYMT,≤ 0.25
7,DSNT,≤ 0.25
8,HSGS,≤ 0.25
9,PPDQ,≤ 0.25
10,IIVS,≤ 0.25
11,NIWF,≤ 0.25
12,TWAW,≤ 0.25
13,RYAS,≤ 0.25
14,FYTM,≤ 0.25
15,KEQG,≤ 0.25
16,RRQG,≤ 0.25
17,SVGG,6.63
18,PYCF,≤ 0.25
19,MFSS,≤ 0.25
20,KPKD,≤ 0.25
21,KTPT,≤ 0.25
22,QTTL,0.662
23,EDPL,≤ 0.25
24,KTGT,≤ 0.25

row,Variant,enrichment ratio
1,LRDS,≤ 0.25
2,WVPM,≤ 0.25
3,GKMG,≤ 0.25
4,SKQT,≤ 0.25
5,KENC,≤ 0.25
6,KTIL,≤ 0.25
7,PRCE,≤ 0.25
8,VTRD,≤ 0.25
9,HDAM,≤ 0.25
10,WSPW,≤ 0.25
11,WNFV,≤ 0.25
12,NEWT,32
13,EIST,≤ 0.25
14,PFKW,≤ 0.25
15,TDQM,≤ 0.25
16,YMAV,≤ 0.25
17,HHDE,≤ 0.25
18,KVSH,≤ 0.25
19,MKIW,≤ 0.25
20,GTAW,≤ 0.25
21,GLLI,9.34
22,GFFN,≤ 0.25
23,DVHK,≤ 0.25
24,YFKH,≤ 0.25

row,Variant,enrichment ratio
1,KTTN,≤ 0.25
2,VCTL,6.03
3,NGKS,≤ 0.25
4,MACR,≤ 0.25
5,SRDY,≤ 0.25
6,NGAT,≤ 0.25
7,SYEY,≤ 0.25
8,KHWS,≤ 0.25
9,LHGC,≤ 0.25
10,LYPY,≤ 0.25
11,FATD,≤ 0.25
12,HFHE,≤ 0.25
13,YMMK,≤ 0.25
14,DMFK,≤ 0.25
15,YEYV,≤ 0.25
16,DAEH,≤ 0.25
17,IETQ,≤ 0.25
18,TVHS,≤ 0.25
19,NFMH,≤ 0.25
20,YTMV,12.2
21,HDPP,≤ 0.25
22,IVGL,≤ 0.25
23,YQNW,≤ 0.25
24,WYAG,≤ 0.25

row,Variant,enrichment ratio
1,GWAS,≤ 0.25
2,SIAK,11.2
3,LLTD,≤ 0.25
4,HAPI,≤ 0.25
5,SDDI,≤ 0.25
6,HPDR,≤ 0.25
7,AYRP,≤ 0.25
8,FKSG,≤ 0.25
9,DATK,≤ 0.25
10,KNEH,≤ 0.25
11,RTVL,≤ 0.25
12,MSEP,≤ 0.25
13,YQSA,≤ 0.25
14,FMLK,≤ 0.25
15,WYSH,≤ 0.25
16,PGLV,≤ 0.25
17,QTHL,4.03
18,QPCI,≤ 0.25
19,KSIF,≤ 0.25
20,FVVT,≤ 0.25
21,VCCR,≤ 0.25
22,GMRE,≤ 0.25
23,KGEH,≤ 0.25
24,LMER,≤ 0.25

row,Variant,enrichment ratio
1,TVQD,≤ 0.25
2,GYGK,≤ 0.25
3,KEEV,≤ 0.25
4,DINK,≤ 0.25
5,KGLL,≤ 0.25
6,NYHQ,≤ 0.25
7,THGN,≤ 0.25
8,PCVQ,≤ 0.25
9,HMQK,≤ 0.25
10,DRNT,≤ 0.25
11,MTNK,≤ 0.25
12,QLWF,≤ 0.25
13,TENN,4.89
14,STSI,8.26
15,FKMI,≤ 0.25
16,TFFN,≤ 0.25
17,VFYP,≤ 0.25
18,YAVD,≤ 0.25
19,IDGQ,≤ 0.25
20,KPIY,≤ 0.25
21,QESI,7.8
22,WSIM,≤ 0.25
23,QVRK,≤ 0.25
24,QDTQ,≤ 0.25

row,Variant,enrichment ratio
1,AKHE,≤ 0.25
2,GQCR,≤ 0.25
3,TTES,3.51
4,KYNI,≤ 0.25
5,CGCT,≤ 0.25
6,ENNC,≤ 0.25
7,KTLV,≤ 0.25
8,AHDL,≤ 0.25
9,QPSD,≤ 0.25
10,LRQI,≤ 0.25
11,FSNN,≤ 0.25
12,AHDR,≤ 0.25
13,QIIT,≤ 0.25
14,EDLM,≤ 0.25
15,KNVM,≤ 0.25
16,MLHY,≤ 0.25
17,VCLP,≤ 0.25
18,DCAF,≤ 0.25
19,LKRL,≤ 0.25
20,WWGA,≤ 0.25
21,NWPV,≤ 0.25
22,MFPY,≤ 0.25
23,MRIY,≤ 0.25
24,WYWP,≤ 0.25

row,Variant,enrichment ratio
1,THYN,≤ 0.25
2,QIHQ,≤ 0.25
3,VVNG,≤ 0.25
4,IRGT,≤ 0.25
5,VLMV,≤ 0.25
6,KSYL,≤ 0.25
7,PMRF,≤ 0.25
8,FGCN,≤ 0.25
9,WAPS,≤ 0.25
10,NPNS,≤ 0.25
11,WKGF,≤ 0.25
12,QRDV,≤ 0.25
13,PTCT,≤ 0.25
14,QYEL,≤ 0.25
15,YCFF,≤ 0.25
16,RWDC,≤ 0.25
17,QMAK,≤ 0.25
18,HLSA,≤ 0.25
19,FCAV,≤ 0.25
20,MQHF,≤ 0.25
21,HQPH,≤ 0.25
22,SARL,≤ 0.25
23,KHVM,≤ 0.25
24,KLKG,≤ 0.25

row,Variant,enrichment ratio
1,AMGH,51
2,YHMD,≤ 0.25
3,VCGG,≤ 0.25
4,WQFI,≤ 0.25
5,KECY,≤ 0.25
6,THSL,10.4
7,DFQA,≤ 0.25
8,YIIM,≤ 0.25
9,DCFY,≤ 0.25
10,FDMQ,≤ 0.25
11,FWKF,≤ 0.25
12,GPNC,≤ 0.25
13,WEFG,≤ 0.25
14,PDPC,≤ 0.25
15,KDTP,≤ 0.25
16,WSFQ,≤ 0.25
17,HDKK,≤ 0.25
18,NYDK,≤ 0.25
19,TMGM,3.21
20,GGES,≤ 0.25
21,ATRW,≤ 0.25
22,GMVE,≤ 0.25
23,LEAG,≤ 0.25
24,AMTC,20.7

row,Variant,enrichment ratio
1,QQTF,≤ 0.25
2,KDKA,≤ 0.25
3,SPMD,≤ 0.25
4,IKYS,≤ 0.25
5,KSVA,≤ 0.25
6,SQMA,8.75
7,HENF,≤ 0.25
8,DMYY,≤ 0.25
9,HDVC,≤ 0.25
10,LIDA,≤ 0.25
11,NAMP,≤ 0.25
12,NRGA,≤ 0.25
13,NLYT,≤ 0.25
14,QECY,≤ 0.25
15,YGLN,5.21
16,SNMA,7.05
17,EHMY,≤ 0.25
18,YTWW,≤ 0.25
19,DISG,≤ 0.25
20,HFKM,≤ 0.25
21,TRGV,≤ 0.25
22,TQGW,≤ 0.25
23,YEIV,≤ 0.25
24,VCYW,≤ 0.25

row,Variant,enrichment ratio
1,EAQP,≤ 0.25
2,KVFE,≤ 0.25
3,TRLY,4.81
4,FQIP,≤ 0.25
5,WGSG,≤ 0.25
6,WRKA,≤ 0.25
7,WWQP,≤ 0.25
8,LEWG,≤ 0.25
9,TPYE,≤ 0.25
10,DYSL,≤ 0.25
11,SWDA,≤ 0.25
12,ESCI,≤ 0.25
13,KMQF,≤ 0.25
14,LTAG,≤ 0.25
15,IYCV,≤ 0.25
16,YKYH,≤ 0.25
17,PQDV,≤ 0.25
18,FIFW,≤ 0.25
